Source: the RNAGym collection of RNA variant scans (doi:10.1073/pnas.2313332121)
This sample is rich in variants without activity.

B1: TPR 5TU (parent)
chain: GGAUCUUCUCGAUCUAACAAAAAAGACAAAUCUGCCACAAAGCUUGAGAGCAUCUUCGGAUGCAGAGGCGGCAGCCUUCGGUGGCGCGAUAGCGCCAACGUUCUCAACUAUGACACGCAAAACGCGUGCUCCGUUGAAUGGAGUUUAUCAUG

Variants of: B1
Assay: polymerase ribozyme fitness, log enrichment relative to wild type (log ratio); higher = more active; in vitro selection for triplet polymerase activity
Procedure, shortened: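 The heterodimeric triplet polymerase ribozyme's subunits were each mutagenized into PCR-built libraries and transcribed. Every library was selected once, in triplicate, by annealing with a biotinylated primer, the partner subunit and triplets, incubating frozen at −7 °C, gel-excising extended constructs, capturing on streptavidin beads and running RT-PCR. Input and output libraries were Illumina-sequenced, with genotypes kept only at ≥10 input reads and ≥1 read per output. Fitness, from inverse-variance-weighted replicate averages, is the base-2 logarithm of genotype enrichment over wild-type enrichment.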

Variant | polymerase ribozyme fitness (log ratio)
U4G U31A U53A A73G U101A | ≤ -4.2
U4G U31C C38U C131G U144C | ≤ -4.2
U4G U33A U53A C85G A89U | ≤ -4.2
U4G U33G U55C C76U G86U C105A C116U | ≤ -4.2
U4G U44G G94A C105G C118U U127A G128A U135G A137U | ≤ -4.2
U4G U45A G80C C87A A91U A142C | ≤ -4.2
U4G U55G | -0.607
U4G U56A A60C C76G A91C C95U A142C | ≤ -4.2
U4G U56A C79U G83A | ≤ -4.2
U4G U56G C85A G141C | -2.61
C5A A16C G25U C57G C93A | ≤ -4.2
C5A A16G A40C U45G A47C C51U A97G C99U U127G | ≤ -4.2
C5A A16U A20C A30U G46U C51U C72A | ≤ -4.2
C5A A16U A24U C35A U56A C85G U109G U144C | ≤ -4.2
C5A A16U C35A C95U | ≤ -4.2
C5A A17G A19C A29G A30G C54G G94C A122U G128A U134G | ≤ -4.2
C5A A17U A24U A26U G50C G140C | ≤ -4.2
C5A A17U C18G C27A A47C G86U A89U U111A A113C | ≤ -4.2
C5A A17U C35U G71C G84U C125A A138G | ≤ -4.2
C5A A17U U45A G71C G84A A89U U104G U145G | ≤ -4.2
C5A A19U G86C | -3.47
C5A A20C A23U A24G G88A C96G G124U C129A | ≤ -4.2
C5A A21U G50A C85A C96A C118G G133C C149U | ≤ -4.2
C5A A22U A40G A91C G92A C123U | ≤ -4.2

Variant | polymerase ribozyme fitness (log ratio)
C5A A29U C57U G58C C87G A91G A137C U148C | ≤ -4.2
C5A A30G C36U G68U G100A | ≤ -4.2
C5A A30U C57A C85A C87A U146A U148A | ≤ -4.2
C5A A30U C57G C79G C85G U101G C108G A138C | ≤ -4.2
C5A A37C C95U C96G U102G C108U | ≤ -4.2
C5A A37U A39C G94U | ≤ -4.2
C5A A39U A138G | ≤ -4.2
C5A A40C G74A G80C C85G G128U A138U | ≤ -4.2
C5A A47C G88U | ≤ -4.2
C5A A47U C76G G94C U101G | -4.01
C5A A52U C87A | ≤ -4.2
C5A C8A A28U C75G C93G A107U C116A | ≤ -4.2
C5A C8G A21U C54G C57U G58A C69A G81A A115U G133C G143U | ≤ -4.2
C5A C8G A40C A49G G84U C95G | ≤ -4.2
C5A C8U A37U G58C G67C G88U G128A | ≤ -4.2
C5A C8U C14G A37U A52G G83A U148G | ≤ -4.2
C5A C36G A52G G84U A89C A106U U144G | ≤ -4.2
C5A C38U A66C C72U C79A C96A G117A | ≤ -4.2
C5A C38U C57A C108G U148G | ≤ -4.2
C5A C38U G50A A60G C95A C103U G126U | -3.13
C5A C51G G74A C85G C87U | ≤ -4.2
C5A C51U | -0.595
C5A C54U A91C G92U C105U G133U | ≤ -4.2
C5A C54U U55A C95G C96A | -4.05

Variant | polymerase ribozyme fitness (log ratio)
C5A C57G C72U A73U G80C C93G A110U | ≤ -4.2
C5A C57U C85U | 0.39
C5A C76A C85U G88U A89U G141C U144C | ≤ -4.2
C5A C79A G88A A106C | ≤ -4.2
C5A G11C G48U C76A C99A | ≤ -4.2
C5A G42C | -4.02
C5A G46C G74A U77C C93U | ≤ -4.2
C5A G46U C79U C93U U134C | ≤ -4.2
C5A G50A G59U G71U A73C C95A C108G | ≤ -4.2
C5A G58A A91C C103G | ≤ -4.2
C5A G67C C103A G141U A150C | ≤ -4.2
C5A G68A G92A | ≤ -4.2
C5A G92A | -1.42
C5A U9A A41G C76G A91U G126A G136A | ≤ -4.2
C5A U13C A30C U45A A49U G58C C76A C95U G136U G141C | ≤ -4.2
C5A U31G C85G C99U A115U C118A G136U G141C | ≤ -4.2
C5A U33A C123G A142U | ≤ -4.2
C5A U44A G81A G83C C85G G133C G141C | ≤ -4.2
C5A U45G C85G | -2.33
C5A U53A C54A C131A G140U | ≤ -4.2
C5A U53G C87A | ≤ -4.2
C5A U61A U102G | ≤ -4.2
C5G A12C A29U C35A A47C U53C G59U A91G G124A G140A | ≤ -4.2
C5G A12C A40U G58C G83U C118G | -3.96

Variant | polymerase ribozyme fitness (log ratio)
C5G A12C G94U C149A | ≤ -4.2
C5G A12G A21C A26U C38G U77A C118U | ≤ -4.2
C5G A12G G42C U61G A106C C125U G143U U144G | ≤ -4.2
C5G A12U U55G G71A C87U C95A C99U U144A | ≤ -4.2
C5G A16C C43A C57U C63U G86A G88C | ≤ -4.2
C5G A16U A29C C57A G62A G74U C95U U134G G152A | ≤ -4.2
C5G A17U C32A G42A G62U C76U G83U C87U C118G | ≤ -4.2
C5G A19C A23U A41G C76G G92A U127G U139G | ≤ -4.2
C5G A19C G42U C79U C105U G126U | ≤ -4.2
C5G A19G A24C A40U U55A G83U G86U | ≤ -4.2
C5G A20G A21G A49G U55A U127A | ≤ -4.2
C5G A20U C35U G50U C93U | -3.76
C5G A23C C43A C85A C95G A98G G100A | ≤ -4.2
C5G A23C C72U G88U C132G U135G U148G | -3.99
C5G A23G G50C A52C C69G A119G | ≤ -4.2
C5G A23U C54G C79U G81U G94U U101A A110C C131A | ≤ -4.2
C5G A24U U31C G42C C69A A97G C105U A137U | ≤ -4.2
C5G A26U U53G G58C G92U C116G A119G | ≤ -4.2
C5G A28U A98U C99G U104A | ≤ -4.2
C5G A29G U45G G58A C99A | ≤ -4.2
C5G A29U A52C C76G C95G C96G C108G A150G | ≤ -4.2
C5G A30C G42A C57G A64U C76U G84U C96U A122G U127C G133C | ≤ -4.2
C5G A37C G81A | -1.37
C5G A37U C38U A66C C75A U77A U90A C93U A113C | ≤ -4.2

Variant | polymerase ribozyme fitness (log ratio)
C5G A39C A64G C79G C103G G141U | ≤ -4.2
C5G A40C C69A G70U A89C | ≤ -4.2
C5G A40C G71A C85A A142C A150C | ≤ -4.2
C5G A41G G42A C85A A138U | ≤ -4.2
C5G A73U G124A | -1.49
C5G A120C | -0.488
C5G C8G A20C C54U | ≤ -4.2
C5G C10G A20U A23C A40U A41C U53A G70U C87A U148A | ≤ -4.2
C5G C10G C18G A19G A23C C35G G80U G83C G128C U134A U145C U146G | ≤ -4.2
C5G C10G U13C U56A C96A U102G A110U | ≤ -4.2
C5G C10U U44G G84A C129U G143C | ≤ -4.2
C5G C14G A23C A64C A91U A147C | ≤ -4.2
C5G C14G C27U G84U A110G | ≤ -4.2
C5G C14G G48C C57A A73C C87U C118U A121G C123U G140C | ≤ -4.2
C5G C18U A21G A40C C57A G58U G94A C99U C108U G143U | ≤ -4.2
C5G C27U C32A A41U G86C | ≤ -4.2
C5G C35U G80U C95U U104A | ≤ -4.2
C5G C38A G58U | -1.06
C5G C54A A89G C116A C123U U145A | ≤ -4.2
C5G C54A A91C | ≤ -4.2
C5G C54G U56A C87U C93A C132A | ≤ -4.2
C5G C54U G84A U127G | ≤ -4.2
C5G C57G C87G A115C | ≤ -4.2
C5G C57U | -0.358

Variant | polymerase ribozyme fitness (log ratio)
C5G C69A C85U C93U | ≤ -4.2
C5G C69G C85A G133U U145C | ≤ -4.2
C5G C76G | ≤ -4.2
C5G C85A | -1.7
C5G C87U | -0.787
C5G C103A G117A | -2.88
C5G G11A A73G C76U | -2.17
C5G G11C U13G A24C G58C C79U C87G | ≤ -4.2
C5G G11U A73U C85G G124A U144A | ≤ -4.2
C5G G25C A28C A41C A49C U101A | ≤ -4.2
C5G G25C A28C C57G G58A C76G G143U | ≤ -4.2
C5G G25U G86A G94C U101C A122G G126A U144C | ≤ -4.2
C5G G46A G92C | -4.13
C5G G46U G81U C87U G88A A98U C125U | ≤ -4.2
C5G G48C G62C A97U G141U | ≤ -4.2
C5G G59U C95U C103G A110C C123U U127A G152C | ≤ -4.2
C5G G59U C99U A119G | -1.53
C5G G83U A98U C105U | -1.03
C5G G84A | -0.0388
C5G G84A G128A C132A | ≤ -4.2
C5G G94C U101G | -2.68
C5G U6C A47U G50C C85U C99U G117A G136U | ≤ -4.2
C5G U6G A28U A39C C85U A107C A122C C132A | ≤ -4.2
C5G U7A U33G A91G C93U C118G A122G U144G | ≤ -4.2

Variant | polymerase ribozyme fitness (log ratio)
C5G U7A U56A A91C A106G C125A G136A U145A | ≤ -4.2
C5G U9A A37C A64G C69A G83C C96U | ≤ -4.2
C5G U9C A16C A28G A30U C32G C35A G59U G92U C105U G143C | ≤ -4.2
C5G U13A A23U A52C C87A C105U A107G | ≤ -4.2
C5G U13A C87A C116U | ≤ -4.2
C5G U31C A49C G92A | ≤ -4.2
C5G U31C A60U G83U A91C C99U C132U | ≤ -4.2
C5G U44A C85U G112A A122G | ≤ -4.2
C5G U44A U53A C57U U77A U78A G84U C114U A122C C123A C125A U146C | ≤ -4.2
C5G U45G G86U C93G A97G | -3.16
C5G U53A | -1.8
C5G U55G G83U U101C | -2.49
C5G U56A G65U G70C A107G A121U U144C | ≤ -4.2
C5U A12U A29G G58A C93G U144G | ≤ -4.2
C5U A12U A52G C85A G140U | ≤ -4.2
C5U A12U C18G G70C G80A C93G C95U A98G U144G | ≤ -4.2
C5U A12U C85G C103A G143C | ≤ -4.2
C5U A19C A39G G80C C87U C105G U135A | ≤ -4.2
C5U A19G G88A | ≤ -4.2
C5U A21U | 1.4
C5U A22C C85A | -9.25e-05
C5U A23U C32U G74U G83A C114U G136U C149U | ≤ -4.2
C5U A24C C32G G34U C35U G67C A73U C76U U77G A91U G94A G117C G133A C149G | ≤ -4.2
